Results published in PubChem BioAssay AID504339 (National Center for Advancing Translational Sciences (NCATS), 2011).
Several values for one entry are separate records, joined by “and”; a condition that tells them apart may be missing. Equal values may be shown once. The campaign covered roughly 390,000 compounds. About 17,000 (4.4%) were called active. The inconclusive results got no clear call from the source; some entries with a clear call stand among them for comparison. The call rests on the fitted dose curve; in most records, active means well fitted inhibition curve with a large enough effect; inconclusive means small, poorly fitted or top-dose-only effect; inactive means no such curve, though single readings can be large or run the other way. Where the call is inconclusive, the potency comes from a doubtful curve fit.

The compounds below were run against Lysine-specific demethylase 4A (Homo sapiens) (UniProt O75164) (assay: qHTS Assay for Inhibitors of JMJD2A-Tudor Domain). Conditions: AlphaScreen JMJD2A-Tudor / H3K4me3 peptide binding; activity change, negative = inhibition: at 114 µM (top of the series).
UniProt O75164, sequence (O75164 whole entry, looked up, the tested form may be a part): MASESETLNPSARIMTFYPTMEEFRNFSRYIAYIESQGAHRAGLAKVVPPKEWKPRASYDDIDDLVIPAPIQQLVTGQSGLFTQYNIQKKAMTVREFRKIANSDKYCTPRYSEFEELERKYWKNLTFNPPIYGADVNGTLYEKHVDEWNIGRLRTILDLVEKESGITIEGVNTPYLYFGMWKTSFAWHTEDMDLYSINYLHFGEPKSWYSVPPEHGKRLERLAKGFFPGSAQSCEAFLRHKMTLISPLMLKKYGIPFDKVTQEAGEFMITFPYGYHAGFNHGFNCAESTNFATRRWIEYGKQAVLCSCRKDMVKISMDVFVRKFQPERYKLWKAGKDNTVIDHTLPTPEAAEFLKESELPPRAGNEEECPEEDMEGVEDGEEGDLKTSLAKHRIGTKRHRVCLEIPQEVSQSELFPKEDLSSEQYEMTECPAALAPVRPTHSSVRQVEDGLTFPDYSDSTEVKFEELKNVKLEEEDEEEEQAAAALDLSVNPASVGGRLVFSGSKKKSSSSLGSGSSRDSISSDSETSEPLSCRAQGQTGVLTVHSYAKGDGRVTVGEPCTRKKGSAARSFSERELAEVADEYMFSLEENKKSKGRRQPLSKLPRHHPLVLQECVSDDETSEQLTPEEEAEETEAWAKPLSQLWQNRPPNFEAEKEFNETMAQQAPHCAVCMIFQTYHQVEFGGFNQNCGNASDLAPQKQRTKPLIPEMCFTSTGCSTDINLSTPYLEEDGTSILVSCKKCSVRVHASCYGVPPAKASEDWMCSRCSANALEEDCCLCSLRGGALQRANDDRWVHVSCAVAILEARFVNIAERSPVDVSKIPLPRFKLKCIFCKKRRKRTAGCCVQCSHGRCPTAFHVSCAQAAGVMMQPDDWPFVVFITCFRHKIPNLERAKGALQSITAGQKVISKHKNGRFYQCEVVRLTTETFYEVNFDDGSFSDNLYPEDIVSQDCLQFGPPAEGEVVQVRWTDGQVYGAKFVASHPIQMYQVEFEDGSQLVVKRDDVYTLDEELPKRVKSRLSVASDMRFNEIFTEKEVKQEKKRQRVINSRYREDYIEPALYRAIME
Further: nearly all actives have a fitted effect of over 50% in size.
On the % scale 0 is the no-effect control and ±100 the full control effect; potency means the concentration at half of the fitted maximal effect; tags describe the fitted curve by direction and shape.

Potency, active:
S=C1Cc2ccccc2N1 79.4 µM, CCCC[N+](C)(C)CCC(=O)NC(C)(C)CS(=O)(=O)[O-] 56.2 µM, S=C(NCCCc1cnc[nH]1)NCCN(Cc1ccc(Cl)c(Cl)c1)c1ccc(Br)cn1 56.2 µM, COc1ccccc1NCC(=O)N/N=C(\C)c1cccs1 35.5 µM, COc1cc(OC)c2c(-c3ccccc3)cc(=O)oc2c1C(CC(=O)N1CCN(c2ccccc2)CC1)c1ccc(N(C)C)cc1 (centres undefined) 8.91 µM and 6.31 µM, COc1cccc(/C=C2\SC(=S)N(CCCC(=O)N(CCO)c3ccccc3)C2=O)c1 35.5 µM

Potency, inconclusive:
Cc1ccc(CCNC(=O)C2CCCN(S(=O)(=O)c3c(C)noc3/C=C/N(C)C)C2)cc1 (centres undefined) 39.8 µM [inhibitor, partial curve], Cc1ccc2nc(-c3cccc(SC4CCCCC4)c3)c(NCc3ccccc3)n2c1 28.2 µM [inhibitor, full curve], Cc1ccc(NCc2nc3ccccc3n2C)c(C)c1 56.2 µM [inhibitor, partial curve, poor fit], Cc1cccc(N2CCN(C(=O)C3CCN(C(=O)c4cc5sccc5n4C)CC3)CC2)c1C 35.5 µM [inhibitor, partial curve], COc1ccc(-n2c(Cc3cccn3C)nnc2SCC(=O)Nc2ccc(F)cc2F)cc1 50.1 µM [inhibitor, partial curve], COc1ccc(OC)c(C2N(c3cc(C)on3)C(=O)C3CCCN32)c1 (centres undefined) 39.8 µM [inhibitor, single point], Cc1[nH]n2c(=O)cc(-c3ccc(Cl)cc3)nc2c1-c1ccccc1 25.1 µM [inhibitor, full curve], Cc1c(C(=O)N2CCCCC2)c(S(=O)(=O)NCc2ccc(N(C)C)cc2)c(C)n1C 100 µM [inhibitor, single point], Cc1ccc(-c2cc(N)n(-c3ccc(C)cc3)n2)cc1 56.2 µM [inhibitor, partial curve] and 44.7 µM [inhibitor, partial curve], Cc1ccccc1-n1c(-c2ccc(Cl)cc2)cnc1SCC(=O)NC1CCS(=O)(=O)C1 (centres undefined) 44.7 µM [inhibitor, partial curve], Cc1ccc(OCC(=O)N/N=C\c2cn(Cc3ccccc3)c3ccccc23)cc1C 89.1 µM [inhibitor, single point], COC(=O)C1=COC(C)C2CN3CCc4c([nH]c5ccccc45)C3CC12 (centres undefined) 79.4 µM [inhibitor, partial curve], Cc1[nH]n(-c2ccccc2)c(=O)c1/C=N\NC(=O)C1COc2ccccc2O1 (centres undefined) 79.4 µM [inhibitor, single point], CSc1ccc(/C=C2\C(=N)N3N=C(CC(=O)N4CCCCC4)SC3=NC2=O)cc1 50.1 µM [inhibitor, partial curve, poor fit], Cc1ccc(C(=O)NC(=C(Cl)Cl)S(=O)(=O)c2ccccc2)cc1 100 µM [inhibitor, partial curve], O=[N+]([O-])c1ccc(S(=O)(=O)N2CCN=C2SCc2cccnc2)cc1 50.1 µM [inhibitor, partial curve], CCC(=O)Nc1sc(Cc2ccccc2)c(C)c1C(N)=O 39.8 µM [inhibitor, partial curve], O=C(CN(CC(=O)N1CCOCC1)S(=O)(=O)c1ccc(Br)s1)N1CCOCC1 28.2 µM [inhibitor, partial curve], Cn1cnnc1Sc1ccc(C(=O)NCCC23CC4CC(CC(C4)C2)C3)cc1[N+](=O)[O-] 70.8 µM [inhibitor, single point], COc1ccc(OC)c(NC(=O)Cc2csc(NC(=O)Nc3ccccc3OC)n2)c1 25.1 µM [inhibitor, full curve], COc1ccc(Cl)cc1N1C(=O)C2CCCN2C1c1sccc1C (centres undefined) 39.8 µM [inhibitor, single point], OC(COCc1ccccc1)CN1CCN(c2ccccc2)CC1 (centres undefined) 89.1 µM [inhibitor, single point], O=[N+]([O-])c1ccc(S(=O)(=O)Nc2nc(-c3ccccc3)cs2)cc1 56.2 µM [inhibitor, partial curve], COc1ccc(C2CC(=O)N3C(=C2C#N)SCC3(O)c2ccccc2)cc1 (centres undefined) 25.1 µM [inhibitor, full curve, poor fit]

Activity change, negative = inhibition, inactive:
COc1ccc(CNC(=O)C(=O)NCCCn2ccnc2)cc1 -7.75%, O=C(Nc1cccnc1Cl)c1cc2c(s1)-c1ccccc1OC2 8.28%, Cc1ccc(NC(=O)CSc2nc3c([nH]c4ccccc43)c(=O)n2-c2ccccc2)cc1Cl -10%, COc1ccc(N2CCN(C(CNC(=O)C(=O)NCc3cccnc3)c3cccnc3)CC2)cc1 (centres undefined) -8.88%, CCOC(=O)C1CCCN(S(=O)(=O)c2cc3[nH]c(=O)c(=O)[nH]c3cc2C)C1 (centres undefined) -14.1%, O=C(c1ccc(-c2ccccc2Cl)o1)N1CCCCCCC1 116%, O=S(=O)(CCN1C=CC(C(F)(F)F)=NCC1)c1ccc(Cl)cc1Cl -13.4%, COc1ccc(OC)c(NC(=O)c2ccc(CSc3nnc(C)s3)cc2)c1 -16.8%, COc1ccc(CCC(=O)OCC(=O)Nc2ccc3[nH]c(=O)[nH]c3c2)cc1 -8.97%, COc1cc(OC)cc(C(=O)N/N=C2/SCC(=O)N2Cc2ccco2)c1 -10.9%, CC(=O)c1cccc(NC(=O)CSc2nc3c(c(=O)[nH]2)CCC3)c1 -18.9%, CC(C)c1ccc(C(=O)NNC(=O)c2n[nH]c(=O)c3ccccc23)cc1 -15.1%, CCOC(=O)N1CCC(N(CCN(C)C)C(=S)Nc2cccc(Cl)c2)CC1 -7.85%, O=C(O)c1cccc(Sc2ccc(Br)cc2C(=O)O)c1 -16.4%
